Test results as given in the supplement of paper PMC12217912.
Some of the results follow. Sequences were assembled here from the parent chain. Values near 0.05 are background.

B1: TEV protease; numbered along this chain (parent)
chain: MGESLFKGPRDYNPISSSICHLTNESDGHTTSLYGIGFGPFIITNKHLFRRNNGTLVVQSLHGVFKVKDTTTLQQHLVDGRDMIIIRMPKDFPPFPQKLKFREPQREERICLVTTNFQTKSMSSMVSDTSCTFPSGDGIFWKHWIQTKDGQCGSPLVSTRDGFIVGIHSASNFTNTNNYFTSVPKNFMELLTNQEAQQWVSGWRLNADSVLWGGHKVFMVKPEEPFQPVKEATQL

Variants of: B1
Assay: raw area under fraction-flipped curve 0-4 h after induction (AUC4h, not background-subtracted), DNA-recorder readout of cleavage of the substrate (dimensionless); higher = more cleavage of the substrate by the protease variant
Details: temperature: 34 °C; time window: 0-4 h after rhamnose induction
Method: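 In vivo DNA recorder in E. coli TOP10(DE3) ΔrhaA at 34 °C. Each TEVp single-site mutant (parent TEVp 0) is paired with a single-site variant of the 7-mer TEVs (canonical ENLYFQ|S). The substrate sits between flexible linkers in a Bxb1-sfGFP-TEVs-SsrA fusion, so cleavage stabilises Bxb1 and speeds flipping of a recombination array, read by NGS. The value is the raw area under the fraction-flipped curve over 0-4 h after rhamnose induction (AUC4h), with ≥20 reads per time point. It is not background-subtracted; inactive controls average about 0.047.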
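Note: Bxb1 expression induced with 0.2% (w/v) L-rhamnose at OD600 near 0.5, cultures sampled hourly, flipped fraction per protease–substrate barcode pair counted by paired-end Illumina sequencing.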

Variant | area with substrate ENLAFQS | area with substrate ENLCFQS | area with substrate ENLDFQS | area with substrate ENLEFQS | area with substrate ENLFFQS | area with substrate ENLGFQS | area with substrate ENLHFQS | area with substrate ENLIFQS | area with substrate ENLKFQS | area with substrate ENLLFQS | area with substrate ENLMFQS | area with substrate ENLNFQS | area with substrate ENLPFQS | area with substrate ENLQFQS | area with substrate ENLSFQS | area with substrate ENLRFQS | area with substrate ENLVFQS | area with substrate ENLWFQS | area with substrate ENLTFQS
R204H | 0.0725 | 0.0682 | 0.0653 | 0.161 | 0.0837 | 0.0683 | 0.0854 | 0.0784 | 0.0836 | 0.0752 | 0.07 | 0.0752 | 0.0558 | 0.087 | 0.0728 | – | – | – | –
N52W | 0.0515 | – | 0.0582 | 0.0597 | 0.0669 | – | 0.0632 | 0.0577 | 0.0697 | 0.0636 | 0.0727 | 0.0615 | 0.064 | – | – | 0.063 | 0.0653 | 0.0047 | –
S16C | 0.0984 | – | 0.0624 | 0.047 | 0.0767 | – | 0.0792 | 0.0863 | 0.0723 | – | 0.0673 | 0.064 | 0.0392 | 0.0636 | 0.0466 | – | – | 0.084 | –
G28L | 0.0824 | 0.0638 | 0.0608 | 0.0661 | 0.066 | 0.0874 | 0.067 | 0.0736 | 0.0677 | 0.0608 | 0.0681 | 0.0746 | 0.056 | 0.0537 | 0.0576 | 0.0549 | 0.0719 | 0.0624 | 0.068
G8P | 0.0668 | – | 0.0649 | 0.0558 | 0.103 | 0.117 | 0.0765 | 0.126 | – | – | 0.0658 | – | – | – | 0.0629 | – | – | 0.0547 | –
L48K | 0.0596 | 0.0593 | 0.0594 | 0.0665 | 0.0528 | 0.0689 | – | – | – | 0.0646 | – | 0.0558 | 0.0547 | 0.0544 | 0.0575 | 0.0665 | 0.0531 | 0.0516 | –
P40G | 0.0889 | 0.076 | 0.0498 | 0.0778 | 0.0907 | – | 0.0759 | 0.0868 | 0.076 | 0.128 | 0.0704 | 0.0694 | – | 0.0755 | 0.0618 | 0.0571 | – | 0.0593 | 0.0842
unchanged | 0.0656 | 0.0714 | 0.0631 | 0.0644 | 0.086 | 0.0671 | 0.0705 | 0.0847 | 0.0777 | 0.0725 | 0.0736 | 0.0646 | 0.0603 | 0.0699 | 0.0634 | 0.0747 | 0.0842 | 0.0691 | 0.0687
M88D | 0.0431 | 0.024 | 0.0515 | – | – | – | – | – | 0.0551 | – | – | 0.0498 | 0.0398 | 0.0161 | – | – | – | – | –
V64W | 0.0751 | – | – | 0.0608 | 0.0861 | 0.0816 | 0.0851 | – | – | 0.0603 | – | 0.0641 | – | 0.0407 | – | 0.0608 | – | – | 0.0667
K46S | 0.0655 | – | 0.0531 | 0.0848 | 0.0731 | 0.075 | 0.0694 | – | 0.0651 | 0.06 | 0.0648 | 0.0657 | 0.0611 | 0.0425 | 0.0807 | 0.0606 | 0.0719 | – | –
L61G | 0.0647 | – | 0.0648 | 0.0677 | 0.0983 | 0.0685 | 0.078 | – | 0.0764 | – | – | 0.0679 | 0.0683 | – | 0.0656 | 0.0858 | – | 0.052 | –
T192E | 0.0608 | – | – | – | 0.0665 | – | 0.0754 | – | 0.0752 | 0.0512 | – | 0.0711 | 0.0599 | – | 0.0551 | 0.0633 | – | – | –
N24C | 0.0604 | – | 0.0561 | – | 0.0747 | 0.0841 | 0.0724 | 0.0783 | 0.0764 | – | – | 0.0603 | 0.0493 | 0.0643 | 0.0596 | – | 0.0491 | 0.0602 | –
V200T | 0.0701 | – | 0.063 | – | 0.0637 | – | 0.074 | – | 0.0714 | – | 0.0759 | 0.0615 | – | – | 0.0666 | 0.0659 | – | – | –
G162C | 0.0526 | 0.067 | 0.0572 | 0.0781 | 0.0902 | 0.0672 | 0.0814 | 0.0741 | 0.0708 | 0.0755 | – | 0.063 | 0.0603 | 0.0643 | 0.0542 | 0.0748 | – | 0.0445 | –
S16N | 0.0697 | 0.0646 | 0.0796 | 0.0709 | 0.0817 | 0.0891 | 0.0677 | – | 0.0764 | 0.062 | 0.0789 | 0.064 | 0.0526 | 0.0822 | 0.0659 | 0.0942 | – | – | –
L48A | 0.0614 | 0.0725 | 0.0688 | 0.0707 | 0.0645 | – | 0.0627 | 0.0731 | 0.0536 | – | 0.0644 | 0.0562 | 0.0611 | 0.0695 | 0.0542 | – | 0.0697 | 0.0624 | –
L33N | 0.066 | – | 0.0733 | 0.0679 | 0.0755 | – | 0.0657 | 0.0798 | 0.0683 | 0.0628 | – | 0.0608 | 0.0655 | – | 0.0825 | 0.0736 | 0.0888 | 0.07 | –
L48V | 0.0643 | – | 0.0663 | 0.0601 | 0.0747 | 0.0643 | 0.0656 | 0.0698 | 0.0644 | – | – | 0.0638 | 0.0626 | 0.0606 | 0.0652 | 0.0627 | 0.0735 | 0.0528 | –
L48I | 0.0644 | – | 0.0696 | 0.0647 | 0.0641 | – | 0.058 | 0.0779 | 0.0742 | 0.0835 | 0.0637 | 0.0653 | 0.0412 | 0.0641 | 0.0622 | – | – | – | –
W144H | 0.0636 | 0.066 | 0.0624 | 0.0498 | 0.0579 | – | 0.0712 | 0.0674 | 0.0778 | – | 0.0612 | 0.0634 | 0.0509 | 0.0692 | 0.0843 | 0.0669 | – | 0.0663 | –
S16I | 0.113 | – | 0.0979 | 0.0679 | 0.0793 | 0.0513 | 0.0734 | 0.0763 | 0.0788 | 0.0824 | – | 0.0703 | 0.0625 | – | 0.0625 | 0.052 | – | – | –
L48R | 0.0687 | 0.0579 | 0.065 | 0.0694 | 0.0685 | 0.0642 | 0.0586 | – | 0.0633 | 0.0704 | 0.0583 | 0.0677 | 0.058 | 0.0532 | 0.0565 | 0.0773 | 0.0488 | 0.053 | –
D128N | 0.0668 | 0.0729 | 0.054 | 0.0514 | 0.0979 | – | 0.0601 | 0.111 | – | – | – | 0.021 | 0.0613 | – | – | 0.0794 | – | 0.0695 | –
G136L | 0.0691 | 0.0694 | 0.0653 | 0.0456 | 0.0812 | – | 0.0673 | 0.0988 | 0.0723 | 0.0565 | – | 0.0557 | 0.0572 | 0.0764 | 0.0632 | 0.076 | 0.0936 | 0.0586 | –
